Results on 110 sequences are retold here after the supplement of paper PMC3334620.

Over roughly 33,000 sequences, “E-score (-0.5 to 0.5)” has its median near -0.036; the highest 2% begin near 0.37. This is one part of the list.

The assay deals with T1, Yer064c (UniProt P40041).
T1 sequence: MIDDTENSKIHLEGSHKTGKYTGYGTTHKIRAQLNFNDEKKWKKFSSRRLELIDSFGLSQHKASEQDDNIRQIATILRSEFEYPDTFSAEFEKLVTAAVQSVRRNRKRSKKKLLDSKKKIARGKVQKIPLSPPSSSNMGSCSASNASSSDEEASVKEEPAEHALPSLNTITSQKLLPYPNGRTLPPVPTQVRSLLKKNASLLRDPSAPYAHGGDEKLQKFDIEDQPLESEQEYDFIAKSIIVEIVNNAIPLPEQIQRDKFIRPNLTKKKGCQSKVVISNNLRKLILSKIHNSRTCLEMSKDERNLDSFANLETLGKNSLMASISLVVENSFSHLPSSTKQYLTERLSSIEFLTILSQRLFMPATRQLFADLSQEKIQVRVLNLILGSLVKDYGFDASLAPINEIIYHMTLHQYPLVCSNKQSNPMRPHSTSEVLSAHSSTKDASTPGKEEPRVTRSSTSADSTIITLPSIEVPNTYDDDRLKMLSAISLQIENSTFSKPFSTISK
Briefly: PBM E-score (8-mer binding enrichment) (E-score (-0.5 to 0.5)); higher = stronger / more preferred TF binding; most listed sequences are background and not binding sites. As to conditions: protein concentration: 200 nM; construct: GST-full length. How it is done: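 Universal 'all 10-mer' protein binding microarrays (Agilent AMADID 015681) probed with GST-tagged S. cerevisiae TFs (full-length or DBD) made by in vitro transcription/translation (PURExpress), about 100-200 nM. Bound TF was detected with fluorescent anti-GST. Each ungapped 8-mer (which stands for itself and its reverse complement) is scored by the PBM enrichment score (E-score), a modified Wilcoxon-Mann-Whitney statistic from -0.5 to +0.5, computed with the Universal PBM Analysis Suite. Scale: above 0.35 generally sequence-specific binding.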
Turning to AAGCACCG, the “PBM E-score” value was -0.164. The result for CACTGGAC reads 0.102; that for GCGCCTGA, -0.0839; that for ATAGGGAT, -0.122.

Regarding GTCACAAC, the “PBM E-score” value worked out at 0.213.

With CGACGGAA, the “PBM E-score” value was -0.0853. As for GCGAGGAC, the “PBM E-score” value is 0.0958. With CTTGCTTC the figure was -0.192.

Take AGTTCATA: the “PBM E-score” value was found to be 0.036.

In the case of AGAAATCA, the “PBM E-score” value amounted to 0.357. The result for CCCCTAGA reads -0.0907; that for CCACACAC, -0.0431. The result for CTCCGGAC reads -0.0121; that for AACGCGCG, 0.0532; that for GGCAGCGA, -0.194. With GGGATACA the figure was -0.138; with ATGGAAAT, -0.0146. Regarding GACGGTCA, the “PBM E-score” value is -0.0972.

Consider GGTCTCGA, for which the “PBM E-score” value was -0.0527. The result for ACCGAGGC reads -0.0911; that for CTACGCAA, -0.0184; that for CCTAGCAG, -0.117. The result for GTTGGTTA reads 0.0865; that for AGTCTTAT, 0.383; that for AGTTTACG, 0.0868. The result for CACCTGGG reads -0.00124; that for AGTGATGG, 0.0175; that for AGCCACGA, 0.14. Consider ATGGTAAC, for which the “PBM E-score” value is -0.113.

For CCATCGAC, the “PBM E-score” value was -0.0393. With AACTATGA the figure was 0.237; with GAACGTCC, -0.24. As to TAGAAAAA, the “PBM E-score” value was 0.0544. The result for AGGCCATA reads -0.114.

ACTTAGTG: the “PBM E-score” value was 0.198. With AGGATAAC the figure was -0.227; with ATCGATAC, 0.0246. With GCCACGTA the figure was -0.293; with CCCGCAGC, -0.203. With GGGAAATA the figure was -0.0646; with CTATCTGC, -0.073. For the sequence GGCAGTTA, the “PBM E-score” value stood at 0.0767. The result for CAACGGCA reads -0.126; that for GATCGCAA, -0.101. With CGCGGTCC, the “PBM E-score” value is -0.37. In the case of CATGCTTC, the “PBM E-score” value came out at 0.0439. The result for AAATGAAC reads 0.0568; that for GACAGATA, -0.114. Consider GTCATTAA, for which the “PBM E-score” value is 0.324. Take CAGCTACG: the “PBM E-score” value came out at 0.0148.

As for GACAAAAC, the “PBM E-score” value was -0.054. The result for ATTTATGC reads -0.0807; that for CTAAGGAC, 0.173. For TTAAGTAA, the “PBM E-score” value was determined as 0.133. The result for AGGCGTCA reads -0.128; that for AGTGTATG, -0.148. AGACTACA: the “PBM E-score” value was found to be 0.344. With AATCGTCT the figure was 0.137. Consider CAGGTTCG, for which the “PBM E-score” value is -0.198. With ACGCTTAG, the “PBM E-score” value was -0.106. With ATTCCGAG the figure was 0.0157. The result for AAGCATTC reads -0.171; that for CGGGGACC, -0.222. Consider CTATTGAA, for which the “PBM E-score” value came to 0.0653. With CCAGCTCG the figure was -0.063. The result for TCATACAA reads 0.175; that for ATATTCTG, -0.0808; that for CACTGGCA, 0.00787.

In the case of CGGAGGCC, the “PBM E-score” value was -0.387.

Consider CTTACGCA, for which the “PBM E-score” value stood at 0.0189. The result for AATACGTC reads -0.176. The result for CTAAGGTA reads 0.105; that for ATTAGCGA, 0.0549; that for ATTACATC, -0.0119. The result for ACTTGTCC reads 0.0288; that for AGATAAGG, -0.163. Turning to TAGTGACA, the “PBM E-score” value is -0.0291.

As for GGTAGCTA, the “PBM E-score” value is -0.152. With ACAAGCCT the figure was -0.0515. The result for AGGTATAT reads -0.0319; that for GTCTGCAA, 0.00067; that for ATTGTCAG, 0.102. In the case of AGCGACCC, the “PBM E-score” value is -0.196. With AGGGGATC the figure was -0.337. With ACTGTACC the figure was 0.021; with CGTAATCC, -0.0532; with GAGAGACA, 0.0904. With AGCCGCAG the figure was -0.13. CGTACAGA: the “PBM E-score” value was -0.0762. With GACGAATA the figure was -0.129; with AAGGAATG, 0.0367. With AATATGAG the figure was 0.25.

In the case of ATCTTCAA, the “PBM E-score” value is 0.165. The result for CAGACTCG reads 0.218; that for ATCTAGCC, -0.00465; that for ACATTGAA, 0.153. The result for GGGGCGCA reads -0.245.

Regarding ACACGCTC, the “PBM E-score” value is 0.0833. With ATTAGCTC the figure was 0.141; with CCGCACCG, -0.0486. With ATAACCTA the figure was -0.136; with CTTGCCGA, 0.0517; with ACCTCAGC, 0.0114. AGCCTACA: the “PBM E-score” value is -0.0615. The result for ACCGTGAA reads 0.0427; that for AGGGCATG, -0.105; that for CACTCGCC, -0.0244.

GGGCCTGA: the “PBM E-score” value was -0.112. As to CCGGTACA, the “PBM E-score” value is -0.226.

For CAACAGCC, the “PBM E-score” value was -0.136.
